Screen size: about 150,000 compounds; about 540 (0.36%) showed an effect of 50% or more. This is one part of the list.

In this assay the test system is Plasmodium falciparum. As to the kind of experiment: Primary screen in NF54 nanoGlo assay, in single point, at 2uM, 72h; a lower Z score goes with more inhibition. The class given is functional, Erythrocyte. To be noted: timepoint 72 hour.
As to `Cc1cc(N2CCN(S(=O)(=O)c3cccnc3)CC2)nc(NC2CCCCC2)n1`, the “% Inhibition” value is reported as 1% and the Z score is reported as -0.17.

Take `Fc1ccc([C@H]2CCN(Cc3ccc4[nH]ccc4c3)C2)cc1`: the “% Inhibition” value is reported as -4% and the Z score is 0.88.

In the case of `Fc1cc2ncnc(N3CCCN(C4CCOCC4)CC3)c2cc1F`, the “% Inhibition” value is 2% and the Z score is given as -0.43.

For the molecule `N#Cc1cnc2ccccc2c1Nc1ccccc1Cl`, the “% Inhibition” value is listed as -3% and the Z score turned out to be 0.65.

Take `Clc1ccccc1N1CC[C@H](c2nc(-c3cccc4[nH]ccc34)no2)C1`: the “% Inhibition” value turned out to be 0% and the Z score is recorded as -0.01.

Take `CC1(S(=O)(=O)NC2(C3CCC3)CCC2)CC1`: the “% Inhibition” value was -8% and the Z score worked out at 1.45.

Regarding `COCCO[C@@H](C)C(=O)NC1(c2ccc(F)cc2F)CCOCC1`, the “% Inhibition” value was -2% and the Z score is reported as 0.37.

Consider `Cn1cc(-c2nc([C@@H]3COCCN3c3ccnc(-c4ccccc4)n3)no2)cn1`, for which the “% Inhibition” value was -6% and the Z score came out at 1.06.

Take `C[C@@H](c1cccc(-c2nc(N)nc3[nH]cnc23)c1)N1CCCC1`: the “% Inhibition” value is listed as -6% and the Z score is given as 1.28.

Consider `O=C(NC1CCCN2CCCC12)c1ccc(-c2cnco2)cc1` (centres undefined), for which the “% Inhibition” value is listed as 1% and the Z score is -0.18.

With `CCc1ncc2c(n1)CN(Cc1nc3ccc(OC)cc3s1)CC2`, the “% Inhibition” value was 7% and the Z score is given as -1.29.

Consider `O=C(Cc1c[nH]c2ccccc12)Nc1ccc(F)c(N2CCS(=O)(=O)CC2)c1`, for which the “% Inhibition” value is listed as 3% and the Z score is on record as -0.48.

Take `CC(=O)N1CCc2c(nc(-c3ccccn3)nc2NCCNc2ccccc2)C1`: the “% Inhibition” value is on record as 2% and the Z score is -0.36.

`O=S1(=O)CCN(C2CCN(c3ncnc4ccc(F)cc34)CC2)CC1`: the “% Inhibition” value was -9% and the Z score is given as 1.73.

For `C[C@H]1CN(c2ccc(C(=O)N3CCC(Oc4cccnc4)CC3)cn2)CCN1`, the “% Inhibition” value is recorded as -9% and the Z score came to 1.59.

For `Cc1ccc(F)cc1NC(=O)CNC(=O)c1cc(C(C)C)nn1C`, the “% Inhibition” value is reported as -20% and the Z score is given as 4.3.

In the case of `OCCNc1nc(NCc2cccc3[nH]ccc23)cc([C@H]2CCOC2)n1`, the “% Inhibition” value is listed as -9% and the Z score is 1.35.

Regarding `CC(C)NC(=O)Nc1cccc(C(=O)N2CCN(Cc3ccc(F)cc3)C[C@@H]2C)c1`, the “% Inhibition” value was -1% and the Z score is given as 0.23.

Take `CCCCC1CN(C(=O)c2cc(C)nc(C)c2)CC(C(C)C)O1` (centres undefined): the “% Inhibition” value is on record as 5% and the Z score was -1.

In the case of `COc1cccc([C@@H](O)CNc2nc(N)c3ccccc3n2)c1`, the “% Inhibition” value stood at 4% and the Z score is -0.55.

Take `CN(C)c1ncc(CN[C@H]2CCCc3c2[nH]c2ccccc32)n1C`: the “% Inhibition” value is recorded as -11% and the Z score is recorded as 1.91.

In the case of `O[C@@H]1CO[C@H]2[C@@H]1OC[C@@H]2Nc1nccc(-c2cccc3ccccc23)n1`, the “% Inhibition” value is -4% and the Z score was determined as 0.54.

As to `CCN(C)c1cc(NCCCc2nnn[nH]2)ncn1`, the “% Inhibition” value came to 1% and the Z score is -0.14.

For the molecule `COC(=O)CN1CCC[C@H](CNc2ncnc3ccc(F)cc23)C1`, the “% Inhibition” value turned out to be 1% and the Z score was -0.11.

As for `CCc1noc(C)c1NC(=O)C(C)(C)COCc1ccccc1`, the “% Inhibition” value is reported as -8% and the Z score is recorded as 1.49.

Regarding `CNS(=O)(=O)CC1CCCN(C(=O)NC2CCC(c3ccccc3F)C2)C1` (centres undefined), the “% Inhibition” value was -6% and the Z score was 1.36.

As for `C#CCC(CC#C)C(=O)NCCCCOC`, the “% Inhibition” value is -3% and the Z score is recorded as 0.53.

For `Cc1ccn2ncc(C(=O)N[C@H]3CCN(C4CCN(C)CC4)C3)c2n1`, the “% Inhibition” value is on record as -12% and the Z score is given as 1.89.

For `Cc1cc(C)c(C#N)c(Oc2ccc(CN3CCCC3)cc2F)n1`, the “% Inhibition” value turned out to be 1% and the Z score was -0.31.

As for `CC(C)(C)OC(=O)N1CC[C@H](Oc2ccnc(-c3noc(-c4cc[nH]n4)n3)c2)C1`, the “% Inhibition” value is -5% and the Z score was determined as 0.78.

As for `Cc1cnn(C)c1S(=O)(=O)NCc1ccc(CCO)cc1`, the “% Inhibition” value is -10% and the Z score turned out to be 1.81.

In the case of `Cc1nc(C(=O)N(C)CC2CCN(Cc3ccccc3)CC2)c(C)o1`, the “% Inhibition” value is listed as -6% and the Z score was 1.19.

In the case of `CN(CCOc1ccc(F)cc1)C(=O)c1cccc2ncccc12`, the “% Inhibition” value worked out at 3% and the Z score is reported as -0.65.

Regarding `Cc1cc(C(=O)N2CC3(CCC3)[C@@H]2C(C)C)ccc1S(N)(=O)=O`, the “% Inhibition” value is -13% and the Z score was 2.

For `CCN1CCC(N2C[C@H](NC(=O)c3cccc(-c4cccc(F)c4)c3)C[C@H]2C(=O)OC)CC1`, the “% Inhibition” value is reported as 7% and the Z score is -1.27.

Take `Cc1nnc(N2CC(C)(C)O[C@]3(CCOC3)C2)o1`: the “% Inhibition” value is recorded as 0% and the Z score is reported as -0.03.

As for `CC(C)(C)c1ccc(O)c(NC(=O)c2c[nH]c3ccccc3c2=O)c1`, the “% Inhibition” value is recorded as -1% and the Z score came out at 0.14.

As to `Cc1ccn2c(C(=O)N(CCO)Cc3c(C)nn(C)c3C)c(C)nc2c1`, the “% Inhibition” value was -8% and the Z score came out at 1.53.

For the molecule `CNc1nc(-c2cccc(C(=O)N3CCN([C@H]4CCNC4)CC3)c2)ncc1F`, the “% Inhibition” value is given as -7% and the Z score is recorded as 1.26.

For the molecule `COc1ccc2c(CCNc3nc(-c4ccc(C5CCCCC5)cc4)cs3)c[nH]c2c1`, the “% Inhibition” value is given as -1% and the Z score was found to be 0.26.

With `O=C(OCc1ccccc1C(F)(F)F)c1cccnc1Nc1cccc(F)c1`, the “% Inhibition” value is -11% and the Z score was determined as 1.72.

Turning to `FC(F)(F)CN1CC[C@H](NC2CCN(c3nccs3)CC2)C1`, the “% Inhibition” value was -13% and the Z score is recorded as 2.21.

For the molecule `Cc1ccccc1C[C@H](NCc1ccc(NC(N)=O)cc1)C1CC1`, the “% Inhibition” value was 10% and the Z score is listed as -1.48.

As to `Cc1nnnn1CCC(=O)NC1CCOCC1Oc1ccc(C(=O)O)cc1` (centres undefined), the “% Inhibition” value stood at 1% and the Z score was -0.19.

Turning to `COc1cc2c(cc1OC)C1(CCN(C(=O)c3cnc(C4CC4)[nH]c3=O)CC1)OCC2`, the “% Inhibition” value is reported as -11% and the Z score was found to be 2.21.

Take `O=C(c1cc(-c2ccccc2)[nH]n1)N1CCC(c2nc3cc(C(F)(F)F)ccc3s2)CC1`: the “% Inhibition” value was 3% and the Z score was -0.4.

For the molecule `COCCN1CCC(CN(C)Cc2cscn2)CC1`, the “% Inhibition” value is 8% and the Z score was -1.36.

As for `COc1ccc2oc(C)c(C(=O)NCc3ccc(F)cc3C(F)(F)F)c2c1`, the “% Inhibition” value was determined as 6% and the Z score is -1.15.

Regarding `O=C(NCCc1nc2cc(Cl)ccc2[nH]1)c1ccc(-c2ccsc2)nc1N1CCCC1`, the “% Inhibition” value is listed as -10% and the Z score came to 1.82.

With `COc1ccc(Nc2ncc(CN(C)CCn3ccnc3)s2)cc1`, the “% Inhibition” value worked out at 1% and the Z score is given as -0.26.

Regarding `COC(=O)[C@@H]1CCCN1C(=O)Cc1ccc(N2CCC(NCc3cnc4ccccn34)CC2)cc1`, the “% Inhibition” value was -7% and the Z score stood at 1.42.

`Cc1noc2ncnc(NCc3ccnc(OC4CCCCC4)c3)c12`: the “% Inhibition” value was -3% and the Z score was 0.44.

Regarding `CN(Cc1ccc(Oc2ncccn2)cc1)CC1CCN(CCc2ccc(F)cc2)CC1`, the “% Inhibition” value is -5% and the Z score turned out to be 0.81.

As to `O=C(NC(CO)Cc1c[nH]c2ccccc12)C1CN2CCCN1CC2` (centres undefined), the “% Inhibition” value is on record as -7% and the Z score is recorded as 1.3.

Consider `CC1CC(Nc2nc(-c3ccnc(C(F)(F)F)c3)cs2)CCO1` (centres undefined), for which the “% Inhibition” value is -4% and the Z score stood at 0.93.

As for `CN(C)c1nc(NCc2cccc(CN3CCCC3)c2)ncc1F`, the “% Inhibition” value is recorded as -6% and the Z score is on record as 1.11.

Consider `O=c1cc(-c2ccccc2Cl)nc(-c2ccc(CN3CCCNCC3)cc2)[nH]1`, for which the “% Inhibition” value is reported as -2% and the Z score amounted to 0.43.

Take `Nc1nccc([C@H]2CCCN(Cc3nc4cc(F)ccc4o3)C2)n1`: the “% Inhibition” value is -2% and the Z score is on record as 0.27.

For `CC(C)(C)c1ccc(CCCNCCN2CCNCC2)cc1`, the “% Inhibition” value stood at 17% and the Z score is reported as -3.58.

On to `Fc1ccc2cc(CN[C@H]3CCO[C@@H]3c3cccnc3)[nH]c2c1`, for which the “% Inhibition” value turned out to be 1% and the Z score is -0.18.

Take `CC(C)c1ccc(-c2nc(CN3CCCCC3)cc(CN3CCCCC3)c2O)cc1`: the “% Inhibition” value stood at 90% and the Z score is reported as -15.77.

`Cc1cc(N2CCCN(C[C@H]3CN(Cc4ccccc4)CCCO3)CC2)ccn1`: the “% Inhibition” value is given as -3% and the Z score stood at 0.52.

Regarding `O=C(NC1CCNCC1O)c1ccc(-c2ccc(Cn3ccnc3)cn2)cc1` (centres undefined), the “% Inhibition” value is -6% and the Z score stood at 1.35.

As for `CCN(Cc1cnn(-c2cccc(Cl)c2)c1)CC1CCN(C2CCN(C)CC2)CC1`, the “% Inhibition” value is on record as 82% and the Z score is on record as -14.12.

Take `Cc1ccc2cccc(C(=O)Nc3c(-c4nc5ccccc5[nH]4)cnn3C)c2n1`: the “% Inhibition” value is -2% and the Z score was 0.27.

With `CC1CN(c2ccccc2NC(=O)c2ccc(-c3cnco3)cc2)CC(C)O1` (centres undefined), the “% Inhibition” value is given as 24% and the Z score is on record as -4.19.

With `CCCOc1ccc(C(=O)O)cc1NS(=O)(=O)c1c(C)cnn1C`, the “% Inhibition” value was determined as 3% and the Z score was -0.57.

In the case of `Cc1nc2n(c1C(=O)N(C)C)CCN(C(=O)CN1C(=O)OC(C)(C)C1=O)C2`, the “% Inhibition” value was determined as 2% and the Z score was -0.32.

As to `C#CCN(Cc1ccc(F)cc1)C(=O)c1ccc2c(c1)nc(C)n2[C@H]1CCS(=O)(=O)C1`, the “% Inhibition” value is -9% and the Z score stood at 1.88.

As to `Cc1ccc(CN2CCC(CNc3nccc(-c4ccccn4)n3)CC2)o1`, the “% Inhibition” value is on record as -3% and the Z score is on record as 0.73.

For `COc1cc(Cn2cc(S(=O)(=O)N(C)C)cn2)ccc1C`, the “% Inhibition” value came to 8% and the Z score is recorded as -1.66.

With `CC1CCCN(c2cc(-c3nc(C4CCC(F)(F)C4)no3)ccn2)C1` (centres undefined), the “% Inhibition” value is on record as -1% and the Z score worked out at 0.11.

As for `O=C(c1cc2c(F)cccc2[nH]1)N1CCC(CN2CCOCC2)CC1`, the “% Inhibition” value is given as -6% and the Z score is reported as 0.96.

As to `Cc1cnccc1N1CCCN(c2cncc(C(=O)N3CCN(C)CC3)n2)CC1`, the “% Inhibition” value is -5% and the Z score is listed as 0.82.

`COc1cc(CCC(=O)N2CCN(C)[C@@H](CCO)C2)ccc1C`: the “% Inhibition” value is given as -11% and the Z score came out at 1.88.

For the molecule `N#Cc1ccccc1-c1c(-c2ccccc2)ncn1CCN1CCC[C@H](C(N)=O)C1`, the “% Inhibition” value is given as -2% and the Z score came out at 0.34.

`Cc1nc([C@H]2C[C@@H](Nc3nccc(N4CCC(O)CC4)n3)C2)cc(=O)[nH]1`: the “% Inhibition” value is given as 4% and the Z score is listed as -0.7.

With `OCCOCCCNC1C2COCC1CN(Cc1ccccc1)C2` (centres undefined), the “% Inhibition” value is -5% and the Z score turned out to be 0.93.

Turning to `Cc1cc(N[C@H]2CCO[C@@H]2c2nccn2C)c2cc(OC(F)F)ccc2n1`, the “% Inhibition” value came to 1% and the Z score is -0.19.

For the molecule `c1ccc(-c2nc(-c3ccncc3)no2)c(O[C@H]2CCN(Cc3ccc4c(c3)CCO4)C2)c1`, the “% Inhibition” value was -2% and the Z score is listed as 0.38.

`CCOc1ccc2nc(N3CCC[C@H](C(=O)N(C)Cc4ccc5nccnc5c4)C3)nc(C)c2c1`: the “% Inhibition” value is -2% and the Z score amounted to 0.32.

Turning to `C[C@@H](c1cccc(-c2ccc(O)c(-c3ccno3)c2)c1)N1CCCC1`, the “% Inhibition” value was -2% and the Z score turned out to be 0.41.

As usually defined, the % Inhibition is the relative decrease from the control value, in per cent.
